The other results are listed elsewhere or left out. Antibody binding of pooled human sera (four to six donors per pool; dilution not stated) to peptides of the Trypanosoma cruzi antigen TSSA on microarrays. Quantile-normalised fluorescence in arbitrary units, mean of duplicate arrays; higher = more binding. No active / inactive call. The uninfected pools are read here as the healthy donors of the same country. The strongest signals lie near the top of the scale (about 60,000).
Legend:
Experiment in all cases: antibody binding signal (normalised fluorescence) (arbitrary fluorescence units); higher = stronger serum antibody binding to peptide
[1] = tested on: pooled sera of chronic Chagas disease patients, Argentina
Description: (§1)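 Microarray of 15-residue peptides over residues 30-55 of Trypanosoma cruzi TSSAII, each with 1 to 10 substitutions at naturally variable positions, probed with one serum pool per country.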

[2] = tested on: pooled sera of chronic Chagas disease patients, Bolivia
Description: as §1

[3] = tested on: pooled sera of chronic Chagas disease patients, Brazil
Description: as §1

[4] = tested on: pooled sera of chronic Chagas disease patients, Colombia
Description: as §1

[5] = tested on: pooled sera of chronic Chagas disease patients, Mexico
Description: as §1

[6] = tested on: pooled sera of chronic Chagas disease patients, USA
Description: as §1

[7] = tested on: pooled sera of uninfected people, Argentina
Description: as §1

[8] = tested on: pooled sera of uninfected people, Bolivia
Description: as §1

[9] = tested on: pooled sera of uninfected people, Brazil
Description: as §1

[10] = tested on: pooled sera of uninfected people, Mexico
Description: as §1

[11] = tested on: pooled sera of uninfected people, USA
Description: as §1

| Sequence | antibody binding signal [1] | antibody binding signal [2] | antibody binding signal [3] | antibody binding signal [4] | antibody binding signal [5] | antibody binding signal [6] | antibody binding signal [7] | antibody binding signal [8] | antibody binding signal [9] | antibody binding signal [10] | antibody binding signal [11] |
| --- | --- | --- | --- | --- | --- | --- | --- | --- | --- | --- | --- |
| KPAAGEAPSQSGASS | 770 | 17200 | 20300 | 115 | 201 | 9160 | 277 | 231 | 121 | 232 | 134 |
| DNKTATGGTPSQPGA | 475 | 1140 | 943 | 2070 | 411 | 628 | 603 | 180 | 545 | 1930 | 189 |
| KEKKAAAGGAPSPSG | 182 | 201 | 150 | 1950 | 283 | 342 | 118 | 95.8 | 107 | 80.9 | 99.6 |
| SGKDNKAAAGGAPSQ | 678 | 284 | 1120 | 3020 | 1300 | 1120 | 207 | 248 | 137 | 71 | 109 |
| DNKAAAGGAPSQSGA | 534 | 396 | 765 | 4060 | 461 | 300 | 384 | 504 | 307 | 545 | 238 |
| TDKKTATGEAPSQPG | 17500 | 28400 | 39200 | 232 | 1240 | 21200 | 240 | 104 | 498 | 184 | 127 |
| STPPSGTDNKAAAGE | 47500 | 42900 | 46600 | 2700 | 21900 | 36400 | 1120 | 579 | 954 | 201 | 202 |
| STPPSGKENKTAAGG | 29500 | 3530 | 13600 | 719 | 4850 | 4540 | 2640 | 1180 | 196 | 334 | 357 |
| GKEKKPATGGAPSQP | 2420 | 392 | 6440 | 1510 | 1830 | 3020 | 209 | 242 | 101 | 99.8 | 302 |
| TISTPPSGKDNKAAT | 4790 | 480 | 2540 | 374 | 13400 | 1810 | 317 | 307 | 163 | 96.8 | 178 |
| ENKTATGGTPSPPGA | 365 | 2450 | 780 | 425 | 378 | 649 | 259 | 159 | 441 | 182 | 157 |
| DNKPATGEAPSQSGA | 44700 | 48500 | 49900 | 247 | 183 | 43000 | 923 | 505 | 435 | 215 | 120 |
| GKDNKAAAGEAPSQP | 5480 | 7310 | 36100 | 4790 | 4700 | 12100 | 219 | 392 | 122 | 83.4 | 95.2 |
